Laboratory results as given in publication PMC4336329 (PLoS ONE, 2015).
The whole screen tested about 310,000 compounds, of which about 14,000 (4.5%) showed an effect of 50% or more. Effects have a minus sign here. Some of the results follow.

The molecules below were run against human ether-à-go-go-related gene (hERG) potassium channel (human, UniProt Q12809) (assay: primary screen, population patch clamp on CHO cells stably expressing hERG).
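Note: peak tail current of the secondary pulse compared with the same well before compound.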

Sequence of human ether-à-go-go-related gene (hERG) potassium channel (Q12809 whole entry, looked up): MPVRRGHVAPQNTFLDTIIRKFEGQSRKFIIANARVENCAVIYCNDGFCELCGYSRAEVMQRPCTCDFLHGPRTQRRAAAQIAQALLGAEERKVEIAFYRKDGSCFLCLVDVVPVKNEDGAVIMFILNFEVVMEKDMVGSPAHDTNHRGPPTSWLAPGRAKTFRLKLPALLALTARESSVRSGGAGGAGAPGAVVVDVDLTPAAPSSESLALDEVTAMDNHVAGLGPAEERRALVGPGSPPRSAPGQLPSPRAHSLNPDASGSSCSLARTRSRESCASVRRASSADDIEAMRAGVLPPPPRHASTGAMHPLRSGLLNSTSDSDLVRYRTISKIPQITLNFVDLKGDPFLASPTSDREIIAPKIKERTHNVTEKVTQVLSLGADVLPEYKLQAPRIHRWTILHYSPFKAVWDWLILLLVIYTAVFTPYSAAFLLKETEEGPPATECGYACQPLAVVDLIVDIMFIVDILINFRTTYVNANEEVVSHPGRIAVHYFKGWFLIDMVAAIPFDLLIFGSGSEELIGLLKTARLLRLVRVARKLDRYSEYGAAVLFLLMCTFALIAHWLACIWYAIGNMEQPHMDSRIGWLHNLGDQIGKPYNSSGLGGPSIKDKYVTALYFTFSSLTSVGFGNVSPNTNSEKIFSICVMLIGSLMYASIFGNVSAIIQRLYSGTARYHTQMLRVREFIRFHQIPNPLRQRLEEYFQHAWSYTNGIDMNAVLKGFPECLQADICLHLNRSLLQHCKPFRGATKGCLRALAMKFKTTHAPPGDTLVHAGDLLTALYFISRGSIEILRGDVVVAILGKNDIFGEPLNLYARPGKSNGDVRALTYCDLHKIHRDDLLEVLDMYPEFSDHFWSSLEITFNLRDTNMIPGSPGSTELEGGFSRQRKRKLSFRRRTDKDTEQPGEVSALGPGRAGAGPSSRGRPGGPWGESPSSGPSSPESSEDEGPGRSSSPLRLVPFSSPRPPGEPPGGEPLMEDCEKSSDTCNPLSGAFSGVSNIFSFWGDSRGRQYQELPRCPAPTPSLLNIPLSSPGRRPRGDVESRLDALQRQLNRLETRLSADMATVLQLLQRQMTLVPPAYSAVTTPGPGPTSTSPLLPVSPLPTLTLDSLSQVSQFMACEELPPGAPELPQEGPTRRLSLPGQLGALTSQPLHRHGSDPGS

SMILES	hERG current change (%, negative = inhibition) at 10uM [%]
O=C1N/C(=N\N=C\c2cccs2)SC1Cc1cccc(Cl)c1 (centres unmarked)	12.6
CC1(C)CC(=O)CC(C)(C)N1OC(=O)c1ccncc1	3.53
Cc1cccc(-n2ncc3c(N(C)Cc4ccccc4)ncnc32)c1	8.54
CCCCOC(=O)c1ccc(NC(=O)c2c(O)[nH]c(=O)[nH]c2=O)cc1	1.86
COC(=O)c1c(CSc2cccc(C)c2)noc1C(=O)NCc1ccco1	-22.3
COC(=O)C1=C(C(=O)OC)SC2(S1)C(C(=O)OC)=C(C(=O)OC)SC1=C2c2cccc(C)c2NC1(C)C	-51.6
COc1ccc(C)cc1NC(=O)C(OC(=O)c1ccc([N+](=O)[O-])o1)c1ccccc1 (centres unmarked)	8.23
Cc1ccc(-c2nn(-c3cc(Cl)ccc3[N+](=O)[O-])c(=O)c3ccccc23)cc1	-22.1
CCCCSc1nnc2[nH]c(=O)cc(N)n12	-14.3
Cc1ccc(N/N=C(\Cc2nc3ccccc3[nH]2)c2ccccc2)cc1	-8.21
Cc1ccnc2nc(C(=O)NCCc3ccc(F)cc3)nn12	16.3
Cc1cc(C(=O)Nc2ccccc2N2CCOCC2)c2ccccc2n1	-15.5
CCOc1ccc(CC(=O)C2C(=O)CCCC2=O)cc1OCC	4.17
CCCN1CCN(CCCNC(=O)Cn2nc(-c3ccc(C)cc3)ccc2=O)CC1	-24.6
COc1cc(C)c(S(=O)(=O)Nc2ccc(CC(=O)O)cc2)cc1C	-9.44
COc1ccc2sc(N(CCCN(C)C)C(=O)c3ccc(S(=O)(=O)N4CCCC4)cc3)nc2c1.Cl	-43.9
CCOc1cc(C)ccc1OCc1nnc(SCC(=O)c2cccc([N+](=O)[O-])c2)n1CC	-7.11
CCOC(=O)C1CCCN(CC(=O)NC2=Nc3ccccc3N=C(C)C2c2ccccc2)C1 (centres unmarked)	-46.9
O=C(OCc1cn(-c2ccc(Cl)c(Cl)c2)nn1)c1ccccc1	0.801
COC(=O)c1cccc(NC(=O)CCNC(=O)c2ccc([N+](=O)[O-])cc2)c1	-48
COc1cccc(N2C(=O)C3CCCN3C2c2cccs2)c1 (centres unmarked)	15

SMILES	hERG current change (%, negative = inhibition) at 10uM [%]
O=C(COC(=O)/C=C/c1ccccc1)Nc1cccc(Oc2ccccc2)c1	9.05
Cc1cccc([N+](=O)[O-])c1NC(=O)COC(=O)c1nc2nccc(C)n2n1	14.4
O=C(CSc1ccc2nnc(CCNC(=O)c3ccccc3)n2n1)Nc1ccccc1F	5.7
O=C(CSc1nc2ncc(Br)cc2[nH]1)c1cccc([N+](=O)[O-])c1	-45.7
CCCn1nc(C(=O)NNC(=O)c2cc(S(=O)(=O)NC)ccc2Br)c2ccccc2c1=O	14.4
Cc1cccc(OCCN2CSC(=S)N(C)C2)c1	6.92
COc1ccc(OCc2cc(C(=O)NCCc3ccccc3)no2)c(Cl)c1	11.1
O=C(Nc1nnc(COc2ccc(Cl)cc2)s1)c1ccco1	29.6
CC(C)C[C@H]1C(=O)N2CCCC2[C@]2(O)O[C@](NC(=O)[C@@H]3C=C4c5cccc6[nH]cc(c56)CC4N(C)C3)(C(C)C)C(=O)N12 (some centres unmarked)	-16.6
COCCCN(C(=O)C(C)Oc1ccc(Br)cc1)c1c(N)n(Cc2ccccc2)c(=O)[nH]c1=O (centres unmarked)	14.2
CSCCC1C(=O)OC2(C)CC(C)(C)NC(=S)N12 (centres unmarked)	-2.46
CC1CC(C)(C)NC(C)c2ccccc21.Cl (centres unmarked)	5.29
O=C(CSc1ccccc1)Nc1ccc(N2CCOCC2)c(F)c1	11.8
Cl.O=C(c1cccc(F)c1)N1CCC(O)(c2cccnc2)CC1	18.1
CCOC(=O)C1(c2ccccc2)CCN(CC(=O)Nc2cccc3ccccc23)CC1	2.87
COc1ccccc1OCC(=O)N(Cc1nnc(-c2ccccc2Cl)o1)C1CC1	-44.2
COc1cc(/C=N/NC(=O)Cc2ccccc2)cc([N+](=O)[O-])c1O	10
CC(=O)O[C@@H]1/C=C/[C@](C)(O)C[C@@H](C)C/C=C/[C@H]2[C@@H]3O[C@]3(C)[C@@H](C)[C@H]3[C@H](Cc4ccccc4)NC(=O)[C@@]312	16
Cc1ccc(C(=O)Oc2ccc(C(=O)COC(=O)c3cnccn3)cc2)cc1	-10.4
COc1nc2ccc(C)cc2cc1-c1noc(-c2cccnc2)n1	9.23
COCCNC(=O)Cn1ncc2ccsc2c1=O	23.2

SMILES	hERG current change (%, negative = inhibition) at 10uM [%]
CCOc1ccccc1NC(=O)N1CCC(C(=O)c2ccc(F)cc2)CC1	-32
O=C(CSc1ccccc1)NCc1cccnc1	6.07
CCOC(=O)C1CCN(C2CCN(C(=O)c3oc4c(C)c(C)ccc4c3C)CC2)CC1	-69.3
O=C(OCC(=O)N1CCN(C(=O)c2ccco2)CC1)c1cc(-c2ccc(Cl)c(Cl)c2Cl)nc2ccccc12	2.88
Cn1cnnc1SCc1cccc(Br)c1	0.347
Cc1cnc(NC(=O)CCCSc2nc3ccccc3s2)s1	6.21
Cc1ccc(C2CC(c3ccccc3)=NN2C(=O)CSc2nnc(-c3ccc(Cl)cc3)o2)o1 (centres unmarked)	4.25
CC(=C/c1ccccc1)/C=N/Nc1nc(N2CCOCC2)nc(N2CCOCC2)n1	-16.9
O=C(CCc1nc2ccccc2c(=O)[nH]1)NNC(=O)c1cccc(Cl)c1	2.51
Cc1[nH]c(=O)[nH]c(=O)c1S(=O)(=O)N1CCCC(C(=O)N2CCC(Cc3ccccc3)CC2)C1 (centres unmarked)	15.1
Nc1nnc(SCc2ccc(Cl)cc2)s1	-0.0745
COc1ccccc1C(=O)COC(=O)c1cc(=O)[nH]c2ccccc12	1.74
Cc1cc(=O)oc2cc(OCC(=O)N3CCN(c4ccccc4)CC3)ccc12	-36.6
COC(=O)C1=C(c2ccc(OC)c(OC)c2)C[C@@H]2CC[C@H]1N2C(=O)NCCCOC(C)C	15.3
CCn1ccnc1CN(C)C(=O)c1cc(COc2c(F)cccc2F)on1	8.9
CN(Cc1cccc(F)c1)C(=O)c1cc(=O)[nH]c2ccccc12	1.39
CCN1N=C(c2cc(Cl)sc2Cl)CSC1=O	-3.22
Nc1ccc(C(=O)Nc2ccc(NC(=O)c3ccco3)c(O)c2)cc1	24.7
CCCCN(CC)CCNc1c(N2CCN(C(=O)OCC)CC2)c(=O)c1=O	11.4
COc1ccc(-n2c(=O)[nH]c3cc(C(=O)NCCc4ccc(Cl)cc4)ccc3c2=O)cc1OC	10.6
COc1ccc(C2C(C(=O)N3CCC4(CC3)OCCO4)c3cc(OC)c(OC)cc3C(=O)N2C)cc1 (centres unmarked)	12.3

SMILES	hERG current change (%, negative = inhibition) at 10uM [%]
CCN(CC)S(=O)(=O)c1ccc(OC(C)C)c(NC(=O)c2c3c(nc4ccccc24)CCN(Cc2ccccc2)C3)c1	-17.7
Cc1ccc(-n2c(SCC(=O)N3CCOCC3)nc(O)c(Cc3ccccc3)c2=O)cc1	9.15
O=C([O-])Cc1ccccc1Nc1c(Cl)cccc1Cl.[Na+]	3.03
CCOc1cccc2sc(N(CCCN(C)C)C(=O)c3ccc(S(=O)(=O)N(C)CC4CCCO4)cc3)nc12.Cl (centres unmarked)	-77.4
Cc1nc2ccc(C(=O)N3CCN(Cc4ccccc4)CC3)cc2[nH]1	17.1
Cn1nc(C(F)(F)F)c(C(=O)Nc2ccc(F)cc2F)c1Oc1cccc(Cl)c1	-12.1
COc1ccc(OC)c(N/C(C)=C/C(=O)c2ccncc2)c1	-24.3
COC(=O)CCC(=O)Nc1ccc2oc3c(c2c1)CCCC3	3.69
S=C(NC1CCCC1)N1CCN(c2ccccn2)CC1	-16.9
COCC(=O)NC1CC2CCC(C1)N2C(=S)Nc1ccccc1C(=O)OC (centres unmarked)	2.87
CN(CC(=O)NC1CC1)S(=O)(=O)c1ccc(Br)cc1	9.51
CCOC(=O)c1ccc(NCc2nc3ccccc3[nH]2)cc1	-10.6
O=C(COC(=O)c1ccccc1NCc1ccco1)Nc1ccc2c(c1)OCO2	-3.83
Nc1nc(-n2cnnc2)nn1-c1ccccc1	-0.287
OC[C@H]1OC(Nc2ccc(N=Nc3ccccc3)cc2)[C@@H](O)[C@@H](O)[C@@H]1O (some centres unmarked)	16.1
O=C(Nc1ccccn1)c1c(O)c2cccc3c2n(c1=O)CCC3	7.22
COc1ccc(C2CC(=O)Oc3c(C(CCN4CCCC(C)C4)c4ccc(N(C)C)cc4)c(OC)cc(OC)c32)cc1 (centres unmarked)	-28.4
CCCCN1C(Nc2ccccc2)=NC[C@@H]1C	14.4
CCO[C@@H]1OC(C(=O)N2CCOCC2)=C[C@H](C2CC2)[C@H]1CCCO	11.6
CCOC(=O)C1CCN(C(=O)CSc2ccc(Cl)cc2)CC1	-32.5
